Here are results for 43 molecules from ChEMBL document CHEMBL4888484, “Replenishing the malaria drug discovery pipeline: Screening and hit evaluation of the MMV Hit Generation Library 1 (HGL1) against asexual blood stage Plasmodium falciparum ,using a nano luciferase reporter read-out” (2022).

Among all 150,000 compounds or so, about 540 (0.36%) showed an effect of 50% or more. Some of the results follow.

The assay has as its system Plasmodium falciparum. The assay can be described thus: Primary screen in NF54 nanoGlo assay, in single point, at 2uM, 72h; a lower Z score goes with more inhibition. It is filed as functional, Erythrocyte. The conditions noted are these: timepoint 72 hour.
As to `CC(C)CCc1noc(Cn2nnc3ccccc3c2=O)n1`, the “% Inhibition” value is -14% and the Z score came out at 2.26.

With `O=C(CCC1CCN(C[C@@H]2CC=CCC2)CC1)N1CCc2ccccc2C1`, the “% Inhibition” value is reported as -5% and the Z score is 0.64.

Turning to `COCc1nc([C@@H]2CCCCCN2C(=O)c2ccc(N(C)C)nc2)no1`, the “% Inhibition” value is -3% and the Z score amounted to 0.34.

For `CN(Cc1ccccc1)[C@H]1CCCN(C(=O)c2n[nH]c(=O)c3ccccc23)C1`, the “% Inhibition” value is listed as 1% and the Z score is reported as -0.08.

For the molecule `O[C@@H]1C[C@@H](c2nc(Cc3ccccc3)no2)N(C2CCCCC2)C1`, the “% Inhibition” value was 17% and the Z score is listed as -1.94.

As for `Cc1nc(CN(C)OCc2ccccc2)cs1`, the “% Inhibition” value is reported as -6% and the Z score stood at 0.57.

For the molecule `Cc1ccc(NC(=O)CN2C[C@@H]3CCS(=O)(=O)[C@@H]3C2)c(C)c1`, the “% Inhibition” value is 6% and the Z score was -0.93.

As to `CC(C)C1CN(C(=O)C2CC23CC3)CCCO1` (stereo unspecified), the “% Inhibition” value amounted to 4% and the Z score is on record as -0.49.

As for `CC1=NN(C(=O)C(Cc2ccccc2)NC(=O)c2ccccc2)C(C)(O)C1` (stereo unspecified), the “% Inhibition” value came out at 10% and the Z score was -1.43.

In the case of `Cc1ccc(CNC(=O)NC[C@H]2CCCO2)s1`, the “% Inhibition” value is given as -14% and the Z score is given as 2.54.

With `CC1(C)CC(NC2CCOC2)c2ccccc21` (stereo unspecified), the “% Inhibition” value was -8% and the Z score is 1.18.

As for `Cc1cc(C)cc(N(C)S(=O)(=O)c2ccsc2-c2nc(-c3ccc(C(F)(F)F)cc3)no2)c1`, the “% Inhibition” value is listed as -14% and the Z score is 2.01.

With `Cn1cc(CCC(=O)NC[C@@H]2CCCN3CCCC[C@H]23)c2ccccc21`, the “% Inhibition” value is -6% and the Z score came to 0.75.

As for `O=C(CCc1cn[nH]c1)N1CCN(c2noc(C3CC3)n2)C[C@@H](O)C1`, the “% Inhibition” value was determined as 1% and the Z score is -0.16.

Take `O=C(CCN1CCC[C@H]1c1ccc[nH]1)NCc1ccccc1Cl`: the “% Inhibition” value is reported as 4% and the Z score is reported as -0.4.

With `CCn1cc(NC(=O)C2CCN(c3ncnc4nc[nH]c34)CC2)cn1`, the “% Inhibition” value was -2% and the Z score came to 0.21.

As for `Cc1conc1CNc1ncnc2c1cnn2C(C)(C)C`, the “% Inhibition” value was 35% and the Z score is listed as -3.99.

Regarding `Cc1ccc([C@H]2CCN(C(=O)NC3CCN(C4CC4)CC3)C2)c(C)c1`, the “% Inhibition” value was found to be 1% and the Z score is given as -0.07.

As for `Cn1nccc1-c1cncc(CNC(=O)c2ccccc2)c1`, the “% Inhibition” value was found to be 12% and the Z score was -1.55.

Turning to `CC1CCC(C(=O)NC2CCN(C(=O)c3cc(-c4ccccc4)n[nH]3)CC2)CC1` (stereo unspecified), the “% Inhibition” value is listed as -10% and the Z score amounted to 1.18.

On to `COc1ccc(Cl)cc1Cc1noc([C@H]2CCOC2)n1`, for which the “% Inhibition” value is -4% and the Z score is 0.63.

As to `Cc1cnc(NC(=O)CCNC(=O)C2CCCC2)s1`, the “% Inhibition” value is 3% and the Z score is -0.29.

Consider `O=C(NC(c1ccc(F)cc1)[C@H]1C[C@@H](O)C1)c1ccco1` (stereo partly specified), for which the “% Inhibition” value is -4% and the Z score amounted to 0.72.

As to `O=C(Nc1ccccc1)N1CC[C@H](Cc2nnc(-c3cccnc3)[nH]2)C1`, the “% Inhibition” value came to 4% and the Z score is listed as -0.67.

For `CCn1ccnc1[C@H]1OCCC[C@@H]1NC(=O)C1Cc2ccccc2O1` (stereo partly specified), the “% Inhibition” value is on record as 2% and the Z score was -0.27.

As to `Cc1ccccc1C1CN(C(=O)CC2(N)CCC2)C(C)CO1` (stereo unspecified), the “% Inhibition” value is -3% and the Z score is reported as 0.38.

Regarding `Cc1ncc(-c2ccccc2)cc1NC(=O)c1ccc(O)nc1`, the “% Inhibition” value is -4% and the Z score amounted to 0.62.

For `CNC(=O)c1ccc(CN(C)[C@H]2CCN(CC(F)(F)F)C2=O)o1`, the “% Inhibition” value is given as -3% and the Z score stood at 0.52.

With `CCOc1ccc(NC(=O)C2CCN(c3cc(=O)n(C)c(=O)n3C)CC2)cc1`, the “% Inhibition” value is listed as -4% and the Z score was 0.69.

For `O=C(c1cnc2[nH]c(=O)[nH]c2c1)N1C2CCC1CC(Cc1ccccc1)C2` (stereo unspecified), the “% Inhibition” value was 6% and the Z score is on record as -0.77.

In the case of `CC(CN1CCCCC1)NC(=O)NC1CCOC2(CCCC2)C1` (stereo unspecified), the “% Inhibition” value is listed as -8% and the Z score is reported as 0.95.

Consider `CC(NC(c1cccc(C(F)(F)F)c1)C1CC1)c1nnnn1C` (stereo unspecified), for which the “% Inhibition” value is -11% and the Z score is recorded as 1.04.

Take `CN(C)CCN(C[C@H]1CCCO1)C(=O)c1ccc2cc[nH]c2c1`: the “% Inhibition” value is reported as -8% and the Z score is given as 1.21.

As for `CNC(=O)COc1cccc(S(C)(=O)=O)c1`, the “% Inhibition” value turned out to be 5% and the Z score was -0.68.

Take `CC1(C)c2ccccc2N2CC(=O)N[C@@]21/C=C/c1ccc(Cl)cc1Cl`: the “% Inhibition” value is listed as -13% and the Z score is on record as 1.67.

For `COc1ccc(CNC2CC(C)(C)OCC2Cc2ccccc2)cc1` (stereo unspecified), the “% Inhibition” value is given as -8% and the Z score was determined as 1.01.

For `COc1cccc(NC(=O)Cn2c(C(C)C)nc3c(c2=O)CN(Cc2ccccc2)CC3)c1`, the “% Inhibition” value is -3% and the Z score came to 0.38.

For the molecule `CCOC1CC(O)C12CCN(C(=O)[C@@H](O)Cc1ccccc1)CC2` (stereo partly specified), the “% Inhibition” value is on record as -1% and the Z score came out at 0.12.

Turning to `O=C(C[C@@H]1O[C@H](CNC(=O)NC2CCCCC2)[C@@H](O)[C@H]1O)NCc1cccnc1`, the “% Inhibition” value was determined as 25% and the Z score is -2.8.

As for `CCC(NC1CCCc2c1cnn2CC)C(=O)Nc1cc(C)on1` (stereo unspecified), the “% Inhibition” value was -10% and the Z score is 1.11.

Regarding `CCOc1cc(C(=O)N2CCC[C@H](c3n[nH]cc3NS(C)(=O)=O)C2)ccc1C`, the “% Inhibition” value is listed as -16% and the Z score is 1.77.

Take `O=C(Nc1ccc2cccc(Cl)c2n1)c1n[nH]c2ccccc12`: the “% Inhibition” value is on record as 16% and the Z score is given as -1.9.

`CC(C)C1(C(=O)N2CC[C@@H](F)C2)COC1`: the “% Inhibition” value is given as -7% and the Z score worked out at 0.68.

One may read the % Inhibition as the drop in the measured response relative to a control, in per cent.
